# The list shows a part of the results.
# B1: ClecSol-Fc (Cryptosporidium parvum) (protein)
# chain: CPEGWISNGEKTRCFKLVTFDRPRTFSHGFKACNDLGGTEVETRRRNGSKETNEYPVTLASVYKLSDEEAIRRTLVEQGDIHKTANGCFVGLRKYAFFRYPPGWYWIDSGSPVSVRDSEINWTSSYNASWLLRFKFPFEKCGFFDIGGLGRRPCWLIDSELSCAVCGTVAYDSGGLNPNKYSELIKQTDEIISKEPKLDLPGYNNLNCTDAWENNLSVGLCQNVSNILDSAWSSYQSSLNFPSINFNWKEDSTNEGGDQVYHNSYLDLPRYKQKKTFYWDQDPGTIPALSDEMKLIGLSAQPTYHPLDRSSSGSFESDSTESGRANEERNDTLEEMIYKQSSDSIEDILVPVTKPIFSDYSSIGRNSGVEEVYSSNVSTISSKGVVFPNTTTSSDNDFTKNNPANSSKHTSTSTTTNTTTTTTRTTTTTTTTTTTTTTTTTTTTETTTTKKSTTATKNTTTT
# How the values were obtained:
# Experiment in all cases: glycan array binding signal (z-score within array); higher = stronger binding
# Conditions in all cases: glycan notation: IUPAC condensed, linker removed
# [1] = biological target: Gal(b1-4)GlcNAc(b1-3)Gal(b1-4)Glc
# Outline: (§1)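 Negative Z-scores can be read as non-binding. The Z-score is calculated within each array and then averaged across arrays of one protein sequence at different concentrations or buffers and across linkers. Arrays, 3228 in all, were curated from the Consortium for Functional Glycomics database and kept only where the protein sequence was available.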
# [2] = biological target: Gal(b1-4)GlcNAc(b1-3)Gal(b1-4)GlcNAc
# Outline: as §1
# [3] = biological target: Gal(b1-4)GlcNAc(b1-3)Gal(b1-4)GlcNAc(b1-2)Man(a1-3)[Gal(b1-4)GlcNAc(b1-3)Gal(b1-4)GlcNAc(b1-2)Man(a1-6)]Man(b1-4)GlcNAc(b1-4)GlcNAc
# Outline: as §1
# [4] = biological target: Gal(b1-4)GlcNAc(b1-3)Gal(b1-4)GlcNAc(b1-2)Man(a1-3)[Gal(b1-4)GlcNAc(b1-3)Gal(b1-4)GlcNAc(b1-2)Man(a1-6)]Man(b1-4)GlcNAc(b1-4)[Fuc(a1-6)]GlcNAc
# Outline: as §1
# [5] = biological target: Gal(b1-4)GlcNAc(b1-3)Gal(b1-4)GlcNAc(b1-2)[Gal(b1-4)GlcNAc(b1-3)Gal(b1-4)GlcNAc(b1-6)]Man(a1-6)[Gal(b1-4)GlcNAc(b1-3)Gal(b1-4)GlcNAc(b1-2)Man(a1-3)]Man(b1-4)GlcNAc(b1-4)GlcNAc
# Outline: as §1
# [6] = biological target: Gal(b1-4)GlcNAc(b1-3)Gal(b1-4)GlcNAc(b1-2)[Gal(b1-4)GlcNAc(b1-3)Gal(b1-4)GlcNAc(b1-6)]Man(a1-6)[Gal(b1-4)GlcNAc(b1-3)Gal(b1-4)GlcNAc(b1-2)Man(a1-3)]Man(b1-4)GlcNAc(b1-4)[Fuc(a1-6)]GlcNAc
# Outline: as §1
# [7] = biological target: Gal(b1-4)GlcNAc(b1-3)Gal(b1-4)GlcNAc(b1-3)Gal(b1-4)GlcNAc
# Outline: as §1
# [8] = biological target: Gal(b1-4)GlcNAc(b1-3)Gal(b1-4)GlcNAc(b1-3)Gal(b1-4)GlcNAc(b1-2)Man(a1-3)[Gal(b1-4)GlcNAc(b1-3)Gal(b1-4)GlcNAc(b1-3)Gal(b1-4)GlcNAc(b1-2)Man(a1-6)]Man(b1-4)GlcNAc(b1-4)GlcNAc
# Outline: as §1
# [9] = biological target: Gal(b1-4)GlcNAc(b1-3)Gal(b1-4)GlcNAc(b1-3)Gal(b1-4)GlcNAc(b1-2)Man(a1-3)[Gal(b1-4)GlcNAc(b1-3)Gal(b1-4)GlcNAc(b1-3)Gal(b1-4)GlcNAc(b1-2)Man(a1-6)]Man(b1-4)GlcNAc(b1-4)[Fuc(a1-6)]GlcNAc
# Outline: as §1
# [10] = biological target: Gal(b1-4)GlcNAc(b1-3)Gal(b1-4)GlcNAc(b1-3)Gal(b1-4)GlcNAc(b1-2)[Gal(b1-4)GlcNAc(b1-3)Gal(b1-4)GlcNAc(b1-3)Gal(b1-4)GlcNAc(b1-6)]Man(a1-6)[Gal(b1-4)GlcNAc(b1-3)Gal(b1-4)GlcNAc(b1-3)Gal(b1-4)GlcNAc(b1-2)Man(a1-3)]Man(b1-4)GlcNAc(b1-4)[Fuc(a1-6)]GlcNAc
# Outline: as §1
# [11] = biological target: Gal(b1-4)GlcNAc(b1-3)Gal(b1-4)GlcNAc(b1-3)Gal(b1-4)GlcNAc(b1-3)Gal(b1-4)GlcNAc(b1-2)Man(a1-3)[Gal(b1-4)GlcNAc(b1-3)Gal(b1-4)GlcNAc(b1-3)Gal(b1-4)GlcNAc(b1-3)Gal(b1-4)GlcNAc(b1-2)Man(a1-6)]Man(b1-4)GlcNAc(b1-4)GlcNAc
# Outline: as §1
# [12] = biological target: Gal(b1-4)GlcNAc(b1-3)Gal(b1-4)GlcNAc(b1-3)Gal(b1-4)GlcNAc(b1-3)Gal(b1-4)GlcNAc(b1-2)Man(a1-3)[Gal(b1-4)GlcNAc(b1-3)Gal(b1-4)GlcNAc(b1-3)Gal(b1-4)GlcNAc(b1-3)Gal(b1-4)GlcNAc(b1-2)Man(a1-6)]Man(b1-4)GlcNAc(b1-4)[Fuc(a1-6)]GlcNAc
# Outline: as §1
# [13] = biological target: Gal(b1-4)GlcNAc(b1-3)Gal(b1-4)GlcNAc(b1-3)Gal(b1-4)GlcNAc(b1-3)Gal(b1-4)GlcNAc(b1-2)[Gal(b1-4)GlcNAc(b1-3)Gal(b1-4)GlcNAc(b1-3)Gal(b1-4)GlcNAc(b1-3)Gal(b1-4)GlcNAc(b1-6)]Man(a1-6)[Gal(b1-4)GlcNAc(b1-3)Gal(b1-4)GlcNAc(b1-3)Gal(b1-4)GlcNAc(b1-3)Gal(b1-4)GlcNAc(b1-2)Man(a1-3)]Man(b1-4)GlcNAc(b1-4)[Fuc(a1-6)]GlcNAc
# Outline: as §1
# [14] = biological target: Gal(b1-4)GlcNAc(b1-3)Gal(b1-4)GlcNAc(b1-3)Gal(b1-4)GlcNAc(b1-3)Gal(b1-4)GlcNAc(b1-3)Gal(b1-4)GlcNAc(b1-2)Man(a1-3)[Gal(b1-4)GlcNAc(b1-3)Gal(b1-4)GlcNAc(b1-3)Gal(b1-4)GlcNAc(b1-3)Gal(b1-4)GlcNAc(b1-3)Gal(b1-4)GlcNAc(b1-2)Man(a1-6)]Man(b1-4)GlcNAc(b1-4)GlcNAc
# Outline: as §1
# [15] = biological target: Gal(b1-4)GlcNAc(b1-3)Gal(b1-4)GlcNAc(b1-3)Gal(b1-4)GlcNAc(b1-3)Gal(b1-4)GlcNAc(b1-3)Gal(b1-4)GlcNAc(b1-2)Man(a1-3)[Gal(b1-4)GlcNAc(b1-3)Gal(b1-4)GlcNAc(b1-3)Gal(b1-4)GlcNAc(b1-3)Gal(b1-4)GlcNAc(b1-3)Gal(b1-4)GlcNAc(b1-2)Man(a1-6)]Man(b1-4)GlcNAc(b1-4)[Fuc(a1-6)]GlcNAc
# Outline: as §1
# [16] = biological target: Gal(b1-4)GlcNAc(b1-3)Gal(b1-4)GlcNAc(b1-3)Gal(b1-4)GlcNAc(b1-3)Gal(b1-4)GlcNAc(b1-3)Gal(b1-4)GlcNAc(b1-2)[Gal(b1-4)GlcNAc(b1-3)Gal(b1-4)GlcNAc(b1-3)Gal(b1-4)GlcNAc(b1-3)Gal(b1-4)GlcNAc(b1-3)Gal(b1-4)GlcNAc(b1-6)]Man(a1-6)[Gal(b1-4)GlcNAc(b1-3)Gal(b1-4)GlcNAc(b1-3)Gal(b1-4)GlcNAc(b1-3)Gal(b1-4)GlcNAc(b1-3)Gal(b1-4)GlcNAc(b1-2)Man(a1-3)]Man(b1-4)GlcNAc(b1-4)[Fuc(a1-6)]GlcNAc
# Outline: as §1
# [17] = biological target: Gal(b1-4)GlcNAc(b1-3)Gal(b1-4)GlcNAc(b1-3)Gal(b1-4)GlcNAc(b1-3)Gal(b1-4)GlcNAc(b1-3)Gal(b1-4)GlcNAc(b1-3)Gal(b1-4)GlcNAc(b1-2)Man(a1-3)[Gal(b1-4)GlcNAc(b1-3)Gal(b1-4)GlcNAc(b1-3)Gal(b1-4)GlcNAc(b1-3)Gal(b1-4)GlcNAc(b1-3)Gal(b1-4)GlcNAc(b1-3)Gal(b1-4)GlcNAc(b1-2)Man(a1-6)]Man(b1-4)GlcNAc(b1-4)GlcNAc
# Outline: as §1
# [18] = biological target: Gal(b1-4)GlcNAc(b1-3)Gal(b1-4)GlcNAc(b1-3)GalNAc
# Outline: as §1
# [19] = biological target: Gal(b1-4)GlcNAc(b1-3)Gal(b1-4)GlcNAc(b1-3)[Gal(b1-4)GlcNAc(b1-3)Gal(b1-4)GlcNAc(b1-6)]GalNAc
# Outline: as §1
binder,measurement,setting,value
B1,glycan array binding signal (z-score),[1],-0.202
same,glycan array binding signal (z-score),[2],-0.173
same,glycan array binding signal (z-score),[3],0.037
same,glycan array binding signal (z-score),[4],0.065
same,glycan array binding signal (z-score),[5],0.543
same,glycan array binding signal (z-score),[6],0.18
same,glycan array binding signal (z-score),[7],-0.245
same,glycan array binding signal (z-score),[8],-0.069
same,glycan array binding signal (z-score),[9],-0.178
same,glycan array binding signal (z-score),[10],-0.021
same,glycan array binding signal (z-score),[11],-0.173
same,glycan array binding signal (z-score),[12],0.483
same,glycan array binding signal (z-score),[13],-0.029
same,glycan array binding signal (z-score),[14],0.299
same,glycan array binding signal (z-score),[15],0.093
same,glycan array binding signal (z-score),[16],-0.031
same,glycan array binding signal (z-score),[17],-0.15
same,glycan array binding signal (z-score),[18],0.234
same,glycan array binding signal (z-score),[19],-0.114

# Source: the supplement of paper PMC8728848
